Data on 55 compounds can be found in article PMC4336329 (PLoS ONE, 2015).

In all, about 310,000 compounds went through this assay and about 14,000 (4.5%) showed an effect of 50% or more. Effects have a minus sign here. This is one part of the list.
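Also: peak tail current of the secondary pulse compared with the same well before compound.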

Chain of human ether-à-go-go-related gene (hERG) potassium channel (Q12809 whole entry, looked up): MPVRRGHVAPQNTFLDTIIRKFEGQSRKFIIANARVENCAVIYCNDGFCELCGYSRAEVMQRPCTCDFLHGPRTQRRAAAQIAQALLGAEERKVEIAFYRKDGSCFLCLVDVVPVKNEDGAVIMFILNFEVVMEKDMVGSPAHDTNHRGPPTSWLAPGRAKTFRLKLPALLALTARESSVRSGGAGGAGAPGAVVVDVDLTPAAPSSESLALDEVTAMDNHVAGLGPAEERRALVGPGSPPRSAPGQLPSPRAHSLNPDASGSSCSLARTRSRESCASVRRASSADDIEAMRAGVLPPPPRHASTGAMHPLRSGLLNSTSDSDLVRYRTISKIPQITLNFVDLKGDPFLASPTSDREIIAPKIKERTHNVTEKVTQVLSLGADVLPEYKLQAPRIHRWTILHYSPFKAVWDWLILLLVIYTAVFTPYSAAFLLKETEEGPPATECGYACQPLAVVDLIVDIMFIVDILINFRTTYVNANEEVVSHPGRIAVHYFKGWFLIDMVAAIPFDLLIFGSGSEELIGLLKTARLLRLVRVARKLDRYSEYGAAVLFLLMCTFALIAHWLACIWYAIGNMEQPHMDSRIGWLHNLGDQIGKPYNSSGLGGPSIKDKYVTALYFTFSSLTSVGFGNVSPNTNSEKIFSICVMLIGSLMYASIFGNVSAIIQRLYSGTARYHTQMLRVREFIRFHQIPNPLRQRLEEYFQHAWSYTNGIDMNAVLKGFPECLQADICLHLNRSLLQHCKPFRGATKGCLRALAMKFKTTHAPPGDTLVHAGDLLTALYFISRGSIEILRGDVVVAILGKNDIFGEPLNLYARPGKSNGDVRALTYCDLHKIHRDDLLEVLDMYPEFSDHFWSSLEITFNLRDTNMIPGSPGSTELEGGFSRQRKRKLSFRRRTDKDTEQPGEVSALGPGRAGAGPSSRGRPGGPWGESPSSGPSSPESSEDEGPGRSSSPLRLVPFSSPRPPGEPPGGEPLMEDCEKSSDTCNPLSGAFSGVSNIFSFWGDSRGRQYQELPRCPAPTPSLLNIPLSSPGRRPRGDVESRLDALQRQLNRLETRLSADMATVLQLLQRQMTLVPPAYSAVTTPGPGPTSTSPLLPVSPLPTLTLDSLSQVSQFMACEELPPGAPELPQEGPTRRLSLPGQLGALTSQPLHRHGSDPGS

The assay addresses human ether-à-go-go-related gene (hERG) potassium channel (human, UniProt Q12809). Put plainly: primary screen, population patch clamp on CHO cells stably expressing hERG.
For the compound `O=C(Cn1nnc(-c2ccccc2)n1)NNC(=O)c1ccc(Br)cc1`, the “hERG current change (%, negative = inhibition) at 10uM” value stood at 17.6%.

With `O=C(CSC1=NC2(CCCCCC2)N=C1c1ccccc1)Nc1ccc2c(c1)OCCO2`, the “hERG current change (%, negative = inhibition) at 10uM” value is on record as -9.84%. Turning to `COc1cc2nc(CCc3ccccc3)oc(=O)c2cc1OC`, the “hERG current change (%, negative = inhibition) at 10uM” value is recorded as 9.52%.

Consider `CCOC(=O)/C=c1\s/c(=C\c2ccc(C#N)cc2)c(=O)n1CC(=O)Nc1cccc(C)c1C`, for which the “hERG current change (%, negative = inhibition) at 10uM” value worked out at 18.6%. As for `Cc1cc(C)n(CCN(C)C(=O)c2cc(COc3c(F)cccc3F)on2)n1`, the figure is 7.78%; as for `Cc1ccccc1OCC(=O)Nc1ccc(N2CCN(C(=O)c3ccco3)CC2)cc1`, -47.8%. The result for `CSc1cccc(CN(C)C(=O)C2CCC(=O)N(CCCN3CCCC3=O)C2)c1` (stereo not shown) reads 1.61%; that for `COc1ccc(N2CCN(C(=O)C3CCN(C(=O)c4cccc(Cl)c4)CC3)CC2)cc1`, -29.8%.

In the case of `CCN(CC)S(=O)(=O)c1ccc(OC)c(NC(=O)CCS(=O)(=O)Cc2ccccc2)c1`, the “hERG current change (%, negative = inhibition) at 10uM” value is given as -28%. The result for `O=C(Cn1nnc(-c2ccc(Cl)cc2)n1)N1CCN(C(=O)c2ccco2)CC1` reads -65%. The result for `O=C(c1ccc(Cl)cc1)N1CCc2ccccc21` reads -4.8%; that for `Cc1cc(C(F)(F)F)nn1-c1nc(-c2ccco2)cc(C(F)(F)F)n1`, -0.589%. Regarding `CN1CCN(Cc2oc(CO)cc(=O)c2O)CC1`, the “hERG current change (%, negative = inhibition) at 10uM” value amounted to 4.85%. The result for `CCN(C(=O)CCS(=O)(=O)c1cccc2nsnc12)c1cccc(C)c1` reads -12.8%; that for `Cc1ccc2ccc(C)[n+](CCCS(=O)(=O)[O-])c2c1`, 16.7%. As for `CCOC(=O)[C@@H]1[C@H]2COc3ccc(Br)cc3[C@@H]2N2C(=O)N(c3ccc(C(F)(F)F)cc3)C(=O)[C@@]12C`, the figure is 7.76%; as for `Cc1cc(C)c(OCC(=O)OCC(=O)N2CCc3ccccc3C2)c(C)c1`, -19%; as for `COc1ccc(C(c2c(NC(C)=O)sc3c2CCCC3)N2CCN(CCO)CC2)cc1OC` (stereo not shown), -7.6%. As for `Cc1ccc(C(=O)N2CCCN(c3nc4cc5c(cc4cc3C#N)OCO5)CC2)cc1`, the figure is -0.619%. Regarding `CCN(C(=O)COc1cccnc1[N+](=O)[O-])C1CCS(=O)(=O)C1` (stereo not shown), the “hERG current change (%, negative = inhibition) at 10uM” value is on record as -0.18%.

Turning to `CCN(CC)C(=O)C1CCCN(c2ccc([N+](=O)[O-])cc2/C=N/NC(=O)c2cccc(Br)c2)C1` (stereo not shown), the “hERG current change (%, negative = inhibition) at 10uM” value was -0.713%. The result for `CN(C(=O)C1CCCCC1)C1(C)CCS(=O)(=O)C1` (stereo not shown) reads -2.29%. The result for `O=C1CN(C(=O)COC(=O)c2cnc(Cl)c(Cl)c2)c2ccccc2N1` reads -6.7%; that for `Oc1ccc(CNc2ccccc2F)c2cccnc12`, 14.5%; that for `COc1cccc(CC(=O)OCC(=O)NC2(C#N)CCCC2)c1`, -1.39%. As for `COc1nc(C)ccc1-c1noc(-c2cccnc2)n1`, the figure is 10.1%. For `COC(=O)C1=C(CSCc2ccccc2)NC(=O)NC1c1cc(C)ccc1C` (stereo not shown), the “hERG current change (%, negative = inhibition) at 10uM” value was -1.35%. As for `Cn1c(=O)cc(SCC(=O)N2CCN(C3CCCCC3)CC2)c2ccccc21`, the figure is -29.4%; as for `Cc1cccc(N=C2N=C(N)c3ccccc32)c1`, -33.1%; as for `COC(=O)C1C(=O)C=C(Nc2ccc(F)cc2)CC1c1ccc(OC)cc1` (stereo not shown), 11%. As for `COc1ccc(NS(=O)(=O)c2cccc(C(=O)N(C)CC(=O)Nc3ccc(C)cc3)c2)cc1`, the figure is -32.6%; as for `Cc1cc(C)cc(NC(=O)NCC2CCN(Cc3cc(C)ccc3C)CC2)c1`, -51%; as for `Cc1c(Cl)cccc1N1CC(C(=O)Nc2nccs2)CC1=O` (stereo not shown), 9.38%.

Turning to `O=C(COC(=O)CNC(=O)c1ccc(Cl)cc1Cl)NCc1ccco1`, the “hERG current change (%, negative = inhibition) at 10uM” value is -9.61%. Consider `COc1cc2ccccc2cc1C(=O)OCC(=O)NC1CCS(=O)(=O)C1` (stereo not shown), for which the “hERG current change (%, negative = inhibition) at 10uM” value is -1.85%. For the compound `NS(=O)(=O)c1ccc(N/N=C/c2cn(-c3ccccc3)nc2-c2ccccc2)c([N+](=O)[O-])c1`, the “hERG current change (%, negative = inhibition) at 10uM” value came out at 3.79%. With `O=C(CN1CCCCCC1)Nc1cccc([N+](=O)[O-])c1`, the “hERG current change (%, negative = inhibition) at 10uM” value is -15.6%. As for `O=C(NCCCN1CCOCC1)C(=O)N/N=C/c1c2ccccc2cc2ccccc12`, the figure is -3.6%; as for `Fc1ccccc1-c1[nH]ncc1-c1nnnn1-c1ccccc1`, 5.39%. As for `CCCNC(=S)Nc1ccc(Br)cc1`, the figure is 11.8%; as for `CS(=O)(=O)N(CC(=O)N1CCN(Cc2ccccc2)CC1)c1ccc2c(c1)OCCO2`, -5.94%; as for `Cc1cccc(-n2nc3c(c2NC(=O)c2cc4ccccc4o2)CS(=O)(=O)C3)c1`, -17.4%. The result for `COc1ccc(OC)c(/C=N\NC(=O)c2ccc(=O)n(C)c2)c1` reads -0.982%. For `Cc1cccc(-c2c3c(nc4c2c(=O)n(C)c(=O)n4C)-c2ccccc2C3O)c1` (stereo not shown), the “hERG current change (%, negative = inhibition) at 10uM” value is 8.35%. As for `Cc1cccc(NC(=S)N2CCN(c3ccccn3)CC2)c1`, the figure is 4.09%. Take `CCN(CC)S(=O)(=O)c1cccc(-c2nnc(SCC(=O)c3ccc(Cl)s3)n2C)c1`: the “hERG current change (%, negative = inhibition) at 10uM” value is on record as -52.7%. As for `Cc1ccc(C(C)NC(=O)c2cc3cc(Br)ccc3oc2=N)cc1` (stereo not shown), the figure is -3.66%; as for `O=C(c1ccccn1)N1CCN(S(=O)(=O)c2ccccc2)CC1`, 12.7%. As for `Cc1nc2sccn2c(=O)c1S(=O)(=O)NCCc1ccc(Cl)cc1`, the figure is 16.6%. As for `CCn1cc(Cl)c(C(=O)Nc2cccc(CN3CCOCC3)c2)n1`, the figure is 14.7%; as for `CCCC(O)(CCC)C(=O)NN(C(=O)CCl)c1ccccc1`, 15.5%.

For `COc1ccccc1C(=O)NC(=O)CSc1nc(C)cs1`, the “hERG current change (%, negative = inhibition) at 10uM” value worked out at 12%.

Regarding `CCc1c(C(=O)NC2CCCC2)csc1C`, the “hERG current change (%, negative = inhibition) at 10uM” value is on record as -7.66%. In the case of `CC(C)Nc1nc(Oc2cccc(Cl)c2Cl)cc(C(F)(F)F)n1`, the “hERG current change (%, negative = inhibition) at 10uM” value worked out at 14%. As for `O=C(NCc1ccco1)C1CC(c2cccc([N+](=O)[O-])c2)=NO1` (stereo not shown), the “hERG current change (%, negative = inhibition) at 10uM” value is given as -16.2%.
